# Assay results reported in article PMC4336329 (PLoS ONE, 2015).
# The campaign covered roughly 310,000 compounds. About 14,000 (4.5%) showed an effect of 50% or more. The effect is printed as a negative number. Some of the results follow.
# Biological target: human ether-à-go-go-related gene (hERG) potassium channel (human, UniProt Q12809)
# Assay: primary screen, population patch clamp on CHO cells stably expressing hERG
# 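Note: peak tail current of the secondary pulse compared with the same well before compound.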
# Chain of human ether-à-go-go-related gene (hERG) potassium channel (Q12809 whole entry, looked up): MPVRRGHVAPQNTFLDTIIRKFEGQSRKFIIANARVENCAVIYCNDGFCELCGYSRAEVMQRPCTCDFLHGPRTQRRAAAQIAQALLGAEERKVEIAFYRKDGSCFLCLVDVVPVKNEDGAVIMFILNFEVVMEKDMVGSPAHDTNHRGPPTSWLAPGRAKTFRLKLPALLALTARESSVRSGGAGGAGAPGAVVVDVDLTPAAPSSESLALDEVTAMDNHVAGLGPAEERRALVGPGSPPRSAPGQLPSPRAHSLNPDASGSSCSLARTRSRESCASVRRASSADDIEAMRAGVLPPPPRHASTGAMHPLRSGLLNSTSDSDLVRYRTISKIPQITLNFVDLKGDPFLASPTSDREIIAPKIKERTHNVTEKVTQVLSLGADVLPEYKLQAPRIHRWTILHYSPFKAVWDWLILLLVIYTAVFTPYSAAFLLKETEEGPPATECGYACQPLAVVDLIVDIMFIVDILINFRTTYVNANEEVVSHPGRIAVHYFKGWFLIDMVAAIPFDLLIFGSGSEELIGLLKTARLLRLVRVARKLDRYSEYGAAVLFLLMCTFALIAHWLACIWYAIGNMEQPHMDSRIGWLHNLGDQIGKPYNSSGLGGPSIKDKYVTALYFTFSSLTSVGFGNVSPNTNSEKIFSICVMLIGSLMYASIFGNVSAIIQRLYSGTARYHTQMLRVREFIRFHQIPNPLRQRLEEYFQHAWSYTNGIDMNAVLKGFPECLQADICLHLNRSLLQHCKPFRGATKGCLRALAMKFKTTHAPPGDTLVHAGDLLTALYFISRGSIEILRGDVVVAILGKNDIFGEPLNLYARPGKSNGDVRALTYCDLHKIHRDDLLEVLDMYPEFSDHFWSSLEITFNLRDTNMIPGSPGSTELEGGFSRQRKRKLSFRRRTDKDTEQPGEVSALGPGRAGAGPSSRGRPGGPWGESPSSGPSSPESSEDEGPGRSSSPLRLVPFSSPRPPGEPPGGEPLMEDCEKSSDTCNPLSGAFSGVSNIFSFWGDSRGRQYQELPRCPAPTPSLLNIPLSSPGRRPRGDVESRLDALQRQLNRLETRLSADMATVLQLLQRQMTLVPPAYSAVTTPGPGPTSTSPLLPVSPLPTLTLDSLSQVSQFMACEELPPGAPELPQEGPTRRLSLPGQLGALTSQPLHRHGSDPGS
row,SMILES,"hERG current change (%, negative = inhibition) at 10uM [%]"
1,O=[N+]([O-])c1ccc(S(=O)(=O)NCCCc2ccccc2)cc1,-64.6
2,CC(C)NC(=O)N1CC(c2ccccc2)C(c2ccc(Cl)cc2)=N1 (centres unmarked),-8.49
3,CCCCCCCCCCCCN1C/C(=C\C(=O)OCC)c2ccccc2S1(=O)=O,11.3
4,O=C(NCCN1CCCCC1)c1cc2ccccc2[nH]1,-33.9
5,Fc1cccc(Cl)c1CNc1ccc(N2CCCC2)cc1,16.7
6,COc1ccc(N2CCN(C(=O)c3ccc(OCC4CCCO4)cc3)CC2)cc1 (centres unmarked),4.74
7,CC(C)(C)OCC1CO1 (centres unmarked),20.2
8,Cc1cccc(NC(=O)NNC(=O)c2ccc3ccccc3c2O)c1,18.9
9,Cc1ccc(C)c(Cn2cnc3c(nnn3-c3ccc(F)cc3)c2=O)c1,-2.53
10,CCNC(=S)NNC(=O)c1cc(-c2ccc(OC)cc2)nc2ccccc12,-1.11
11,Cc1ccc(-n2cc(CNCC3CC(=O)N(C4CC4)C3)c(-c3cccc(C)c3)n2)cc1 (centres unmarked),-71.9
12,COc1ccc(C2Nc3ccccc3NC3=C2C(=O)CC(C)(C)C3)cc1 (centres unmarked),8.09
13,COc1ccccc1NC(=O)c1sc2ncn(Cc3ccc(C)cc3)c(=O)c2c1C,6.86
14,CC12CCC(C(=O)N(CSC(=S)N/N=C\c3ccccc3)C1=O)C2(C)C (centres unmarked),12
15,O=C(O)CCNS(=O)(=O)c1cccc(Br)c1,5.19
16,COc1cc(/C=N/Nc2ccccn2)cc(OC)c1O,-12.6
17,CC(C)N1CCN(Cc2cn[nH]c2C2CCCCC2)CC1CCO (centres unmarked),11.7
18,CCOc1ccc(NC(=S)NNC(=O)CC(C)O)cc1 (centres unmarked),40.7
19,CC(=O)Nc1ccc(NC(=O)C(C)c2cccc(C(=O)c3ccccc3)c2)cc1 (centres unmarked),21.4
20,Cc1nnc(NC(=O)CC(C)c2ccccc2)s1 (centres unmarked),23.2
21,CCN(CC(=O)Nc1c(F)cccc1F)C(=O)CSc1ccc(F)cc1,-14.3
22,Cc1cc(OCC(=O)NCCCN2CCOCC2)cc(C)c1Cl,-3.75
23,C=CCn1c(SCC(=O)NCc2ccc3c(c2)OCO3)nnc1-c1cccnc1,-0.64

row,SMILES,"hERG current change (%, negative = inhibition) at 10uM [%]"
1,COc1ccc(CNC(=O)c2c([S-])n(-c3ccc(C)cc3)c3cccc[n+]23)cc1,3.45
2,CC(=O)c1cccc(CN2CCN(C3CCCCC3)C(CCO)C2)c1 (centres unmarked),-15.9
3,C=CCNc1nc(NCCO)nc(N2CCCC2)n1,-4.67
4,COc1ccccc1C(=O)NCCC(=O)N(C)CC(=O)Nc1ccc(N2CCOCC2)cc1,-26.7
5,CCN(CC(=O)NC1CCS(=O)(=O)C1)S(=O)(=O)c1ccc2ccccc2c1 (centres unmarked),-13.7
6,CC(C)(C)NC(=O)C(c1ccccn1)N(C(=O)C1CSC(=O)C1)c1ccc(F)cc1 (centres unmarked),6.26
7,CNC(=O)Nc1ccc(C(O)(C(=O)OC)C(F)(F)F)cc1 (centres unmarked),15.9
8,CN(C)c1ccc(CN2CCCCCC2)cc1,-6.11
9,CN(c1cccc(NC(=O)Nc2cccc(Cl)c2)c1)S(C)(=O)=O,-11.7
10,CCCC1=C(C(=O)OCC)C(c2ccc(N(C)C)cc2)n2ncnc2N1 (centres unmarked),-15
11,Cc1cccc(C(=O)Nc2c(C#N)c(C)c(C)n2Cc2ccccc2)c1,12.2
12,O=C(CCCc1c[nH]c2ccccc12)NCCc1c[nH]c2ccccc12,-4.33
13,CC1CN(C(=O)c2ccn(C)n2)CC(C)O1 (centres unmarked),5.85
14,Cc1cc(Cl)ccc1C(=O)C1CCCN(C(=O)/C=C/c2cnn(C)c2)C1 (centres unmarked),-10.7
15,COc1cccc(C(=O)NCC(=O)OCC(=O)c2ccccc2)c1,2.59
16,CC(C)CCNC(=O)c1ccc2c(SCC(=O)O)c3c(nc2c1)CCCC3,-2.6
17,CCn1c(/C=C/c2c(C)n(CC)c3ccccc23)nc2ccccc2c1=O,-19.7
18,CCOc1ccccc1N(C(=O)c1snc(C(N)=O)c1N)C(C(=O)NCCC(C)C)c1ccco1 (centres unmarked),-22.2
19,COC(=O)NC(=C(Cl)Cl)P(=O)(c1ccccc1)c1ccccc1,15.5
20,CN(CCc1nnc(N)s1)[N+](=O)[O-],16.6
21,NC(=O)CC(NC(=O)c1ccc(Br)cc1)c1ccc(N2CCCCCCC2)c([N+](=O)[O-])c1 (centres unmarked),-8.88
22,Cc1ccc(NC(=O)c2ccccc2OCc2c(C)noc2C)cc1S(=O)(=O)N(C)C,-0.589
23,N#Cc1sc2nc(-c3cccs3)cc(-c3ccccc3)c2c1N,10.3

row,SMILES,"hERG current change (%, negative = inhibition) at 10uM [%]"
1,COc1ccc(C)cc1NC(=O)CSc1nnc(COc2ccc(Cl)cc2)n1Cc1ccco1,4.62
2,CC(C)N1CC=C2C(C#N)=C(N)C(C#N)(C#N)C(c3ccccc3)C2C1 (centres unmarked),-10.1
3,COc1ccc(-c2cc(C)no2)cc1S(=O)(=O)NCCCN(C)Cc1ccccc1,-29.9
4,C(=C\c1nc(N2CCCCCC2)c2ccccc2n1)/c1ccccc1,-21.8
5,Cn1c(-c2ccccc2)cc2ccccc21,9.39
6,O=C(c1ccsc1)N1CCCC(N2CCN(c3cccc(Cl)c3)CC2)C1 (centres unmarked),-47.1
7,O=c1c2c3c(sc2nc2n1CCCCC2)CCCCC3,-15
8,CCCNC(=O)CCc1c(C)nc2c(c(C)nn2-c2ccc(C)cc2)c1C,-0.266
9,Cc1cc(/C=C\c2nc(O)c([N+](=O)[O-])c(=O)[nH]2)c(C)n1-c1ccccc1,17.1
10,COc1ccc(NC(=O)CCOc2ccccc2)cc1,0.896
11,COc1ccc(/C=C/c2nc(N)nc(-c3ccccc3O)n2)cc1,-4.43
12,Cc1ccc(C)c(-n2c(SCC(N)=O)nnc2-c2ccccn2)c1,17.2
13,Cc1cccc(OCC(=O)Nc2ccc(N3CCN(C(=O)c4ccccc4)CC3)cc2)c1C,3.45
14,CC(C)(C)c1ccc(C(=O)N2CCN(S(=O)(=O)c3ccc(Br)s3)CC2)cc1,1.21
15,O=C(Nc1cccc(OCC(=O)N2CCOCC2)c1)c1cccc([N+](=O)[O-])c1,25.9
16,COc1cccc(OCc2cc(/C=N/n3cncn3)ccc2OC)c1,7.82
17,CC1(C)N=C(N)N=C(N)N1c1cccc(CN)c1.CCS(=O)(=O)O,20.6
18,O=C1NC(=S)S/C1=C\c1coc2ccccc2c1=O,5.99
19,CCN1C(=NCCc2cccnc2)N[C@@H](c2ccccc2)[C@H](C(=O)OC)[C@H]1C,1.69
20,O=C(O)CSc1nc2ccccc2nc1Cc1ccccc1F,17
21,COc1ccc(-c2n[nH]c(=S)n2-c2ccccc2C)cc1OC,7.74
22,O=C(c1ccc(Br)o1)N1CCN(c2ncccn2)CC1,0.956
23,COc1ccc(NC(=O)c2cccc(NC3=NC4CS(=O)(=O)CC4S3)c2)cc1Cl (centres unmarked),8.42

row,SMILES,"hERG current change (%, negative = inhibition) at 10uM [%]"
1,COc1ccc2c(c1)c1nc3ccccc3nc1n2Cc1ccc(OC)c(OC)c1,24.5
2,O=C(N/N=C/c1ccc(N2CCOCC2)o1)c1cccc([N+](=O)[O-])c1,-7.67
3,CCOc1ccc(-c2c(C(=O)N/N=C(\C)c3cccs3)nnn2-c2nonc2N)cc1,12.9
4,COc1ccc(CNC(=O)c2cc(=O)c3c(C)cc(C)cc3o2)cc1,5.63
5,COc1ccccc1NC(=O)COC(=O)CNC(=O)c1ccc(OC)c(OC)c1,-0.0486
6,Fc1ccccc1N1CCN(C2CCCN(Cc3cccc(C(F)(F)F)c3)C2)CC1 (centres unmarked),-52.1
7,O=C(O)c1ccc2c(c1)C(=O)N(NC(=O)c1ccc(O)cc1)C2=O,46.9
8,COc1ccc(CNC(=O)CSc2nn3c(=O)c(C(C)(C)C)nnc3s2)cc1OC,-2.41
9,O=C(O)Cc1ccc(NC(=O)c2cnccn2)cc1,26.1
10,CN1CCCCC1=NCCCn1cnc2c1c(=O)n(C)c(=O)n2C.Cl,9.4
11,COC(=O)C1(C(=O)OC)NOC2C(=O)N(N(C)c3ncc(C(F)(F)F)cc3Cl)C(=O)C21 (centres unmarked),24.1
12,CC1CC1C(=O)OCC(=O)NNC(=O)COc1ccc(Br)cc1 (centres unmarked),-7.8
13,O=C(N/N=C/c1cccnc1)c1ccccc1[N+](=O)[O-],-13.8
14,CC(C)CC(C(=O)NC(=O)NCc1ccccc1)N1C(=O)c2ccccc2C1=O (centres unmarked),8.22
15,COc1ccc(S(=O)(=O)Nc2ccc(O)c(Sc3nc4ccccc4s3)c2)cc1,19.8
16,COc1cc(C2c3c(-c4ccccc4)n[nH]c3C(=O)N2c2ccc(C(=O)O)cc2)ccc1O (centres unmarked),8.38
17,CC1=C(C(=O)OC(C)C)C(c2ccccc2)NC(=S)N1C (centres unmarked),2.43
18,O=C(NC1CCN(S(=O)(=O)c2ccc(F)cc2)CC1)c1ccc(F)cc1,4
19,CC(=O)Cc1nsc(Nc2ccccc2)n1,13.5
20,CCn1c(SCC(=O)Nc2ccc3c(c2)OCO3)nnc1C(C)C,-5.58
